Assay results as given in the supplement of paper PMC9446081.
About 220 (0.56%) of roughly 39,000 compounds showed activity. Some of the results follow.

test system: Escherichia coli K-12 BW25113; test: relative growth (OD600 normalised to plate interquartile mean) (fraction); higher = less growth inhibition, active = 0.2 or less; details: 50 µM; LB; incubation time: overnight (16-24 h)
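Note: static incubation at 37 °C against the wild-type strain, values averaged over two biological replicates.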

Structure (SMILES)	relative growth
C[C@@H]1CN([C@H](C)CO)C(=O)c2cc(NS(=O)(=O)c3ccccc3)ccc2O[C@H]1CN(C)Cc1ccc(Oc2ccccc2)cc1	inactive: 0.992
Cl.Cl.O=C1c2c(O)ccc(O)c2C(=O)c2c(NCCNCCO)ccc(NCCNCCO)c21	inactive: 1.09
C[C@H](CO)N1C[C@H](C)[C@@H](CN(C)S(=O)(=O)c2ccc(Cl)cc2)Oc2ccc(NC(=O)C3CC3)cc2CC1=O	inactive: 1
Cc1ccc(S(=O)(=O)Nc2ccc3c(c2)C(=O)N([C@@H](C)CO)C[C@@H](C)[C@@H](CN(C)S(=O)(=O)c2c(C)noc2C)O3)cc1	inactive: 1.01
C[C@@H]1CCCCO[C@@H](CN(C)CC2CC2)[C@@H](C)CN([C@H](C)CO)C(=O)c2cc(NC(=O)CCCCCC(=O)Nc3ccccc3N)ccc2O1	inactive: 0.849
C[C@H](CO)N1C[C@H](C)[C@@H](CN(C)S(=O)(=O)c2cn(C)cn2)Oc2ccc(NC(=O)Nc3ccc(F)cc3)cc2CC1=O	inactive: 0.986
C[C@@H]1CN([C@H](C)CO)C(=O)Cc2cc(NS(=O)(=O)c3ccccc3)ccc2O[C@@H]1CN(C)CC1CC1	inactive: 0.995
C=CC[C@@H](CC(=O)N(CCO)Cc1ccccc1)C(=O)N[C@@H](COC(=O)[C@H](CC=C)Cc1ccc(F)cc1)Cc1c[nH]c2ccccc12	inactive: 0.843
C[C@@H]1CN([C@H](C)CO)S(=O)(=O)c2ccc(C#Cc3cccnc3)cc2O[C@H]1CN(C)C(=O)Nc1ccc2c(c1)OCO2	inactive: 1.01
COc1ccc(NC(=O)Nc2ccc3c(c2)C(=O)N([C@@H](C)CO)C[C@@H](C)[C@@H](CN(C)Cc2ccccc2)OCCCC[C@H](C)O3)cc1	inactive: 0.929
C[C@@H]1CCCCO[C@@H](CN(C)C(=O)Cc2ccccc2)[C@@H](C)CN([C@H](C)CO)C(=O)c2cc(NC(=O)C3CCCCC3)ccc2O1	inactive: 1.04
C[C@H](CO)N1C[C@H](C)[C@H](CN(C)Cc2ccc(Oc3ccccc3)cc2)Oc2ccc(NC(=O)C3CCCCC3)cc2C1=O	inactive: 0.998
C[C@@H]1CN([C@H](C)CO)S(=O)(=O)c2ccc(-c3cccc(F)c3)cc2O[C@H]1CN(C)S(C)(=O)=O	inactive: 1
NC[C@H](c1ccccc1)N1CCOCC1	inactive: 1
c1ccc2nc(C3=NCCN3)cnc2c1	inactive: 0.999
COc1ccc(NC(=O)Nc2ccc3c(c2)CC(=O)N([C@H](C)CO)C[C@H](C)[C@H](CN(C)Cc2ccc(-c4ccccc4)cc2)O3)cc1	inactive: 0.951
COc1ccc(S(=O)(=O)N(C)C[C@@H]2OCc3cnnn3CCCC(=O)N([C@H](C)CO)C[C@H]2C)cc1	inactive: 0.989
CCS(=O)(=O)NCC[C@@H]1CC[C@@H](NC(=O)C2CC2)[C@@H](CO)O1	inactive: 0.982
COc1cc2c(cc1OC)CN(C(=O)[C@@H]1[C@H]3C(=O)O[C@H](c4ccccc4)[C@H](c4ccccc4)N3[C@H](c3ccc(OCCO)cc3)[C@@]13C(=O)Nc1ccccc13)CC2	inactive: 1.06

Structure (SMILES)	relative growth
C[C@H]1CN([C@@H](C)CO)C(=O)Cc2cc(NS(=O)(=O)c3cn(C)cn3)ccc2O[C@H]1CN(C)S(C)(=O)=O	inactive: 1
C[C@H](CO)N1C[C@H](C)[C@H](CN(C)C(=O)NC2CCCCC2)Oc2c(NC(=O)c3cnccn3)cccc2C1=O	inactive: 0.986
Cc1ccc(S(=O)(=O)Nc2ccc3c(c2)C(=O)N([C@H](C)CO)C[C@@H](C)[C@H](CN(C)C(=O)NC2CCCCC2)OCCCC[C@H](C)O3)cc1	inactive: 1.02
Cc1cc(C(=O)Nc2cccc3c2O[C@@H](CN(C)S(=O)(=O)c2cccs2)[C@@H](C)CN([C@H](C)CO)C3=O)n(C)n1	inactive: 1.01
COc1ccc(CN2C[C@@H](C)[C@@H](OC)CN(C)C(=O)c3cc(NC(=O)c4nc5ccccc5s4)ccc3OC[C@H]2C)cc1	inactive: 1.02
CS(=O)(=O)Nc1ccc2c(c1)[C@H]1C[C@@H](CC(=O)NCc3ccc(-c4ccccc4)cc3)O[C@@H](CO)[C@H]1O2	inactive: 0.962
C[C@H]1CCCCO[C@H](CN(C)C(=O)Nc2ccc(F)cc2)[C@@H](C)CN([C@@H](C)CO)C(=O)c2cc(NC(=O)NC3CCCCC3)ccc2O1	inactive: 1.01
C[C@@H]1CN([C@H](C)CO)C(=O)Cc2cc(NC(=O)Cc3ccccc3)ccc2O[C@@H]1CN(C)C(=O)Nc1cccc2ccccc12	inactive: 0.986
C[C@H]1CCCCO[C@@H](CN(C)Cc2ccc(C(F)(F)F)cc2)[C@@H](C)CN([C@@H](C)CO)C(=O)c2cc(NC(=O)Cc3ccccc3)ccc2O1	inactive: 1.03
CC(C)NC(=O)N(C)C[C@@H]1OCCCC[C@H](C)Oc2ccc(NC(=O)Nc3ccc(C(F)(F)F)cc3)cc2C(=O)N([C@@H](C)CO)C[C@H]1C	inactive: 1.06
C[C@@H]1CCCCO[C@H](CN(C)S(=O)(=O)c2ccc(F)cc2)[C@@H](C)CN([C@H](C)CO)C(=O)c2cc(NS(=O)(=O)c3ccc(Cl)cc3)ccc2O1	inactive: 1.02
C[C@@H]1CN([C@H](C)CO)C(=O)CCCn2cc(nn2)CO[C@H]1CN(C)S(=O)(=O)c1ccccc1C#N	inactive: 1.01
C[C@@H]1CCCCO[C@@H](CN(C)C(=O)Nc2ccccc2)[C@H](C)CN([C@H](C)CO)C(=O)c2cc(NC(=O)Cc3ccccc3)ccc2O1	inactive: 1.01
COc1ccc2c3c([nH]c2c1)[C@@H](CO)N(C[C@]13CN(CC2CCCCC2)C1)C(=O)Nc1cccc(c1)F	inactive: 0.964
C[C@@H]1CN([C@H](C)CO)C(=O)c2cccc(NC(=O)c3nc4ccccc4s3)c2O[C@H]1CN(C)S(=O)(=O)c1cn(C)cn1	inactive: 1
C[C@@H]1CCCCO[C@H](CN(C)Cc2ccncc2)[C@H](C)CN([C@H](C)CO)C(=O)c2cc(NC(=O)NC3CCCCC3)ccc2O1	inactive: 0.997
COc1ccc(NC(=O)Nc2ccc3c(c2)CC(=O)N([C@H](C)CO)C[C@H](C)[C@@H](CN(C)CC2CCCCC2)O3)cc1	inactive: 0.984
C=C1CC(=O)C2=C(C)C[C@H](O[C@@H]3O[C@H](CO)[C@@H](O)[C@H](O)[C@H]3O)[C@H]3C(=C)C(=O)O[C@@H]3[C@@H]12	inactive: 1.01
CSc1nc(C)cc(OCCO)n1	inactive: 1.03

Structure (SMILES)	relative growth
CC(C)NC(=O)Nc1ccc2c(c1)CC(=O)N([C@H](C)CO)C[C@@H](C)[C@@H](CN(C)S(=O)(=O)c1cn(C)cn1)O2	inactive: 0.902
C[C@@H]1CCCCO[C@@H](CN(C)C(=O)Nc2cccc3ccccc23)[C@@H](C)CN([C@H](C)CO)C(=O)c2cc(NS(=O)(=O)c3cccs3)ccc2O1	inactive: 1.01
C/C=C/c1ccc2c(c1)O[C@H](CN(C)S(=O)(=O)c1ccccc1OC)[C@H](C)CN([C@H](C)CO)S2(=O)=O	inactive: 1.01
CCC(=O)OC(CC(=O)O)C[N+](C)(C)C.[Cl-] (configuration not stated)	inactive: 1.05
Cc1ccc(S(=O)(=O)Nc2ccc3c(c2)C(=O)N([C@@H](C)CO)C[C@@H](C)[C@H](CN(C)Cc2ccc(Cl)c(Cl)c2)O3)cc1	inactive: 0.979
C[C@H]1CN([C@@H](C)CO)C(=O)CCCn2nncc2CO[C@@H]1CN(C)S(=O)(=O)c1ccc2ccccc2c1	inactive: 0.969
C=CCN(C(=O)[C@H]1N(C(C)(C)CO)C(=O)[C@H]2[C@H](C(=O)O)[C@@H]3C=C[C@@]21O3)C(C)(C)C	inactive: 1.01
CC(C)NC(=O)N(C)C[C@H]1Oc2ccc(NS(=O)(=O)c3cccs3)cc2C(=O)N([C@H](C)CO)C[C@@H]1C	inactive: 1
Cc1noc(C)c1NC(=O)Nc1ccc2c(c1)C(=O)N([C@H](C)CO)C[C@H](C)[C@H](CN(C)Cc1ccc(Cl)c(Cl)c1)O2	inactive: 0.991
C[C@@H]1CN([C@@H](C)CO)C(=O)c2cc(NC(=O)Nc3ccc4c(c3)OCO4)ccc2O[C@@H](C)CCCCO[C@@H]1CN(C)S(=O)(=O)c1ccccc1	inactive: 1.01
CON=C1CC2(CC3CC(CC=C(C)CC(C)C=CC=C4COC5C(O)C(C)=CC(C(=O)O3)C45O)O2)OC(C(C)=CC(C)C)C1C (configuration not stated)	inactive: 0.891
COc1ccc(NC(=O)Nc2ccc3c(c2)CC(=O)N([C@H](C)CO)C[C@H](C)[C@H](CN(C)S(=O)(=O)c2cn(C)cn2)O3)cc1	inactive: 0.994
C[C@@H]1CN([C@@H](C)CO)C(=O)c2cc(NC(=O)Nc3ccccc3)ccc2O[C@@H](C)CCCCO[C@@H]1CN(C)C(=O)Nc1ccc2c(c1)OCO2	inactive: 1.02
Cc1ccc(S(=O)(=O)Nc2ccc3c(c2)C(=O)N([C@H](C)CO)C[C@@H](C)[C@@H](CN(C)C(=O)Cc2ccccc2)OCCCC[C@H](C)O3)cc1	inactive: 1.01
O=C(C[C@@H]1CC[C@@H]2[C@H](COC[C@H](O)CN2CC2CCOCC2)O1)N1CCOCC1	inactive: 0.994
COc1ccc(S(=O)(=O)N(C)C[C@@H]2OCCCC[C@@H](C)Oc3ccc(NC(=O)Nc4ccccc4)cc3C(=O)N([C@@H](C)CO)C[C@H]2C)cc1	inactive: 1.02
C[C@@H]1CN([C@H](C)CO)C(=O)Cc2cc(NC(=O)Cc3cn(C)c4ccccc34)ccc2O[C@H]1CN(C)Cc1ccc(C(F)(F)F)cc1	inactive: 0.983
C[C@H]1CN([C@@H](C)CO)C(=O)Cc2cc(NS(=O)(=O)c3ccccc3)ccc2O[C@H]1CN(C)Cc1ccc(Cl)c(Cl)c1	inactive: 1.01
COc1ccc(S(=O)(=O)N(C)C[C@@H]2Oc3ccc(NC(=O)CCN4CCOCC4)cc3C(=O)N([C@@H](C)CO)C[C@H]2C)cc1	inactive: 1
